Measurements published in PubChem BioAssay AID1508642 (National Center for Advancing Translational Sciences (NCATS), 2021).
About 200 (0.47%) of roughly 43,000 compounds were called active. About 12% were inconclusive and are not listed. Calls come from the whole dose curve; as a rule, active = well fitted cell-killing curve with a large enough effect; inconclusive = small, poorly fitted or top-dose-only effect, or effect the other way; inactive = flat fitted curve, though single readings scatter. This is one part of the list.

assay: Cell viability qHTS assay in S16 Pmp22-F2sN cells; details: S16 Pmp22-F2sN Schwann cells (luciferase reporters placed in the Pmp22 gene) viability, CellTiter-Glo, 24 h; series mostly up to 57.5 µM; activity change, negative = cytotoxicity: at the top concentration; note: nearly all actives have a fitted effect of over 65% in size
Method in brief: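 Luminescence from CellTiter-Glo, read by CCD camera after a 15 min room-temperature incubation, served as the viability signal. Reporter Schwann cells (S16 Pmp22-F2sN) had been treated with pin-transferred compounds for 24 h at 37C.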
% is set by controls: 0 for no effect and ±100 for the full control effect.

Structure (SMILES)	activity change, negative = cytotoxicity
CCOc1ccc(CN2C(=O)c3ccccc3C2C(=O)NCCc2ccc(OC)c(OC)c2)cc1 (configuration not stated)	inactive: 0.831%
COc1ccccc1NC(=O)C1=C(C)Nc2ncnn2C1c1cccn1C (configuration not stated)	inactive: 16.6%
Cc1ccc(C)c(NC(=O)C2CCN(c3cc(C)nc4c(-c5ccc(Cl)cc5)c(C)nn34)CC2)c1	inactive: 4.36%
COc1cccc(NC(=O)Cn2cc(C(=O)c3ccco3)c3ccccc32)c1	inactive: -14.6%
COc1ccc(-n2cc(C(=O)Oc3cc(C)cc(C)c3)c3ccccc3c2=O)cc1	inactive: -7.51%
CCOc1ccc(CNS(=O)(=O)c2ccc3c(c2)CCCN3C(C)=O)cc1	inactive: 0.161%
CC(=O)Nc1c(C)nn(-c2ccccc2)c1N1CCC(C(=O)Nc2ccccc2F)CC1	inactive: -0.886%
COc1ccc(NC(=O)c2ccco2)cc1NC(=O)c1c(OC)cccc1OC	inactive: 16.3%
O=C(Nc1ccccc1)N(Cc1cccc(Cl)c1)c1ccccn1	inactive: -0.348%
Cn1c2ccccc2c2cnn(CC(=O)NCCCN3CCN(c4ccccc4F)CC3)c(=O)c21	inactive: -2.67%
CCS(=O)(=O)c1nc(S(=O)(=O)c2ccc(C)cc2)c(NC)s1	inactive: -2.8%
Cc1cccc(C(=O)N2CCc3cc(CNS(=O)(=O)c4ccc(F)c(Cl)c4)ccc32)c1	inactive: -26.8%
CCc1ccccc1NC(=O)Cn1ccn(Cc2ccccc2)c(=O)c1=O	inactive: 1.57%
CC1CCCCN1C(=O)CCS(=O)(=O)c1cc2c(cc1Cl)NC(=O)CO2 (configuration not stated)	inactive: 10.9%
COc1cccc(CNCCCSc2nnnn2C)c1OC	inactive: -0.465%
COc1ccc(CNc2nc(SCc3ccccc3Cl)nc3ccccc23)cc1	inactive: -6%
COc1ccc(N2CC(NC(=O)C3CCCC3)CC2=O)cc1OC (configuration not stated)	inactive: 14.7%
O=C(Nc1cccc(Cl)c1)C1CCCN(c2ncnc3c2nc2n3CCCCC2)C1 (configuration not stated)	inactive: 20.1%
CCOC(=O)C1CCC(CN(Cc2ccc(OC)cc2)S(=O)(=O)c2ccc(F)c(C(=O)Nc3c(C)cccc3C)c2)CC1 (configuration not stated)	inactive: -6.87%
CS(=O)(=O)Nc1ccccc1C(=O)OCc1cc(=O)n2nc(C3CCCCC3)sc2n1	inactive: -24.6%
Cc1cc(F)ccc1NC(=O)CS(=O)(=O)c1cccc2nsnc12	inactive: 3.01%
O=C(Cn1cnc2c(nc3n2CCCCC3)c1=O)Nc1ccc(F)c(Cl)c1	inactive: -1.07%
CC1CCCN(S(=O)(=O)c2cc3c4c(c2)CC(=O)N4CCC3)C1 (configuration not stated)	inactive: -9.16%
Cn1nc(C(=O)N2CCN(c3ccc(F)cc3)CC2)c2c1-c1ccccc1SC2	inactive: -1.73%
COc1ccc(CCNC(=O)c2cn(C)c3ccc(S(=O)(=O)N(C)C)cc3c2=O)cc1OC	inactive: -0.573%
CC(C)c1ccc(NC(=O)Cn2nnc(C(=O)NCc3ccc(Cl)cc3)c2N)cc1	inactive: 3.25%
CCN(C(=O)c1cn(CC(C)C)c(=O)c2cc(OC)c(OC)cc12)c1cc(OC)ccc1OC	inactive: 16.1%
